No constants are given. Whether binding was seen depends on the method and setting. Some entries that bind do so weakly or less than the wild type.

Protein sequences, listed by entry. Tags and fused reporters are not part of them.
UniProt P49841: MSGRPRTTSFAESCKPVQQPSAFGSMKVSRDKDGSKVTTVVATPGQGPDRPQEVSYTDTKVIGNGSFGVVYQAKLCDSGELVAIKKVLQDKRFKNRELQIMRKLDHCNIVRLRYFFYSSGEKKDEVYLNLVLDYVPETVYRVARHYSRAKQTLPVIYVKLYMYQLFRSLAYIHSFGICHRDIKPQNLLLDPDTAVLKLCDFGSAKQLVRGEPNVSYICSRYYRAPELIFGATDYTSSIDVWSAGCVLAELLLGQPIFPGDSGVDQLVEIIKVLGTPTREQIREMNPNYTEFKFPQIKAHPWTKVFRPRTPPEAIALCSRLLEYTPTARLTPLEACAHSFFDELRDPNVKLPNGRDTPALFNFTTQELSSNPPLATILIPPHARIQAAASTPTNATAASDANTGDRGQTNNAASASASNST

This note sets out measurements from publication PMC8775565.

Sequences and labels used below:
B1: glycogen synthase kinase interaction protein (GSKIP), wild type, full length (protein, UniProt Q9P0R6 1-139)
chain: METDCNPMELSSMSGFEEGSELNGFEGTDMKDMRLEAEAVVNDVLFAVNNMFVSKSLRCADDVAYINVETKERNRYCLELTEAGLKVVGYAFDQVDDHLQTPYHETVYSLLDTLSPAYREAFGNALLQRLEALKRDGQS
B2: GSKIP L126V (full length) (protein, UniProt Q9P0R6 1-139)
chain: METDCNPMELSSMSGFEEGSELNGFEGTDMKDMRLEAEAVVNDVLFAVNNMFVSKSLRCADDVAYINVETKERNRYCLELTEAGLKVVGYAFDQVDDHLQTPYHETVYSLLDTLSPAYREAFGNAVLQRLEALKRDGQS
B3: GSKIP L126Q (full length) (protein, UniProt Q9P0R6 1-139)
chain: METDCNPMELSSMSGFEEGSELNGFEGTDMKDMRLEAEAVVNDVLFAVNNMFVSKSLRCADDVAYINVETKERNRYCLELTEAGLKVVGYAFDQVDDHLQTPYHETVYSLLDTLSPAYREAFGNAQLQRLEALKRDGQS
B4: GSKIP F122P (full length) (protein, UniProt Q9P0R6 1-139)
chain: METDCNPMELSSMSGFEEGSELNGFEGTDMKDMRLEAEAVVNDVLFAVNNMFVSKSLRCADDVAYINVETKERNRYCLELTEAGLKVVGYAFDQVDDHLQTPYHETVYSLLDTLSPAYREAPGNALLQRLEALKRDGQS
B5: GSKIP Y118F (full length) (protein, UniProt Q9P0R6 1-139)
chain: METDCNPMELSSMSGFEEGSELNGFEGTDMKDMRLEAEAVVNDVLFAVNNMFVSKSLRCADDVAYINVETKERNRYCLELTEAGLKVVGYAFDQVDDHLQTPYHETVYSLLDTLSPAFREAFGNALLQRLEALKRDGQS
B6: GSKIP L126P (full length) (protein, UniProt Q9P0R6 1-139)
chain: METDCNPMELSSMSGFEEGSELNGFEGTDMKDMRLEAEAVVNDVLFAVNNMFVSKSLRCADDVAYINVETKERNRYCLELTEAGLKVVGYAFDQVDDHLQTPYHETVYSLLDTLSPAYREAFGNAPLQRLEALKRDGQS
B7: GSKIP L130V (full length) (protein, UniProt Q9P0R6 1-139)
chain: METDCNPMELSSMSGFEEGSELNGFEGTDMKDMRLEAEAVVNDVLFAVNNMFVSKSLRCADDVAYINVETKERNRYCLELTEAGLKVVGYAFDQVDDHLQTPYHETVYSLLDTLSPAYREAFGNALLQRVEALKRDGQS
B8: GSKIP L130A (full length) (protein, UniProt Q9P0R6 1-139)
chain: METDCNPMELSSMSGFEEGSELNGFEGTDMKDMRLEAEAVVNDVLFAVNNMFVSKSLRCADDVAYINVETKERNRYCLELTEAGLKVVGYAFDQVDDHLQTPYHETVYSLLDTLSPAYREAFGNALLQRAEALKRDGQS
B9: GSKIP L126A (full length) (protein, UniProt Q9P0R6 1-139)
chain: METDCNPMELSSMSGFEEGSELNGFEGTDMKDMRLEAEAVVNDVLFAVNNMFVSKSLRCADDVAYINVETKERNRYCLELTEAGLKVVGYAFDQVDDHLQTPYHETVYSLLDTLSPAYREAFGNAALQRLEALKRDGQS
B10: GSKIP F122A (full length) (protein, UniProt Q9P0R6 1-139)
chain: METDCNPMELSSMSGFEEGSELNGFEGTDMKDMRLEAEAVVNDVLFAVNNMFVSKSLRCADDVAYINVETKERNRYCLELTEAGLKVVGYAFDQVDDHLQTPYHETVYSLLDTLSPAYREAAGNALLQRLEALKRDGQS
B11: GSKIP F122Y (full length) (protein, UniProt Q9P0R6 1-139)
chain: METDCNPMELSSMSGFEEGSELNGFEGTDMKDMRLEAEAVVNDVLFAVNNMFVSKSLRCADDVAYINVETKERNRYCLELTEAGLKVVGYAFDQVDDHLQTPYHETVYSLLDTLSPAYREAYGNALLQRLEALKRDGQS
B12: GSKIP L130I (full length) (protein, UniProt Q9P0R6 1-139)
chain: METDCNPMELSSMSGFEEGSELNGFEGTDMKDMRLEAEAVVNDVLFAVNNMFVSKSLRCADDVAYINVETKERNRYCLELTEAGLKVVGYAFDQVDDHLQTPYHETVYSLLDTLSPAYREAFGNALLQRIEALKRDGQS
B13: GSKIP Y118P (full length) (protein, UniProt Q9P0R6 1-139)
chain: METDCNPMELSSMSGFEEGSELNGFEGTDMKDMRLEAEAVVNDVLFAVNNMFVSKSLRCADDVAYINVETKERNRYCLELTEAGLKVVGYAFDQVDDHLQTPYHETVYSLLDTLSPAPREAFGNALLQRLEALKRDGQS
B14: GSKIP L130P (full length) (protein, UniProt Q9P0R6 1-139)
chain: METDCNPMELSSMSGFEEGSELNGFEGTDMKDMRLEAEAVVNDVLFAVNNMFVSKSLRCADDVAYINVETKERNRYCLELTEAGLKVVGYAFDQVDDHLQTPYHETVYSLLDTLSPAYREAFGNALLQRPEALKRDGQS
B15: GSKIP Y118A (full length) (protein, UniProt Q9P0R6 1-139)
chain: METDCNPMELSSMSGFEEGSELNGFEGTDMKDMRLEAEAVVNDVLFAVNNMFVSKSLRCADDVAYINVETKERNRYCLELTEAGLKVVGYAFDQVDDHLQTPYHETVYSLLDTLSPAAREAFGNALLQRLEALKRDGQS

In this experiment the target is glycogen synthase kinase-3β (GSK3β) (UniProt P49841). Put plainly: two-hybrid; … Two-Hybrid System 2 (Gal4), YRG-2 yeast; pAS2-1-GSK3β bait and pACT2 prey cotransfected; G2 plates deficient in tryptophan and leucine, G3 plates deficient in histidine; blue colour in the colony filter lift (β-galactosidase) assay on G3 plates = positive interaction; semiquantitative grades.
Turning to SPAYREAFGNAVLQRLEALKRDGQS (peptide, UniProt Q9P0R6 115-139) [GSKIPtide (115–139) L126V], the binding result is reported as “no binding”.

Regarding B1, the binding entry is reported as “binds”.

For the molecule B2, the binding entry was “binds”.

Take B3: the binding result is given as “binds”.

Regarding B4, the binding entry is “no binding”.

With B5, the binding result is on record as “binds”.

For the molecule B6, the binding result is recorded as “no binding”.

In the case of B7, the binding entry is given as “binds”.

With B8, the binding entry is listed as “binds”.

On to B9, for which the binding result is “binds”.

With B10, the binding entry was “binds”.

With B11, the binding result was “binds”.

With B12, the binding result is listed as “binds”.

On to B13, for which the binding entry is on record as “no binding”.

As for B14, the binding entry is “no binding”.

As for B15, the binding result was “binds”.

As to SPAYREAFGNAPLQRLEALKRDGQS (peptide, UniProt Q9P0R6 115-139) [GSKIPtide (115–139) L126P], the binding result is on record as “no binding”.

For the molecule SPAYREAFGNAQLQRLEALKRDGQS (peptide, UniProt Q9P0R6 115-139) [GSKIPtide (115–139) L126Q], the binding result is reported as “no binding”.

With SPAAREAFGNALLQRLEALKRDGQS (peptide, UniProt Q9P0R6 115-139) [GSKIPtide (115–139) Y118A], the binding entry was “no binding”.

Take SPAYREAFGNALLQRIEALKRDGQS (peptide, UniProt Q9P0R6 115-139) [GSKIPtide (115–139) L130I]: the binding result is listed as “no binding”.

Consider SPAPREAFGNALLQRLEALKRDGQS (peptide, UniProt Q9P0R6 115-139) [GSKIPtide (115–139) Y118P], for which the binding result was “no binding”.

On to SPAYREAFGNALLQRLEALKRDGQS (peptide, UniProt Q9P0R6 115-139) [GSKIPtide (115–139), wild type], for which the binding result is “binds”.

SPAYREAFGNAALQRLEALKRDGQS (peptide, UniProt Q9P0R6 115-139) [GSKIPtide (115–139) L126A]: the binding entry is listed as “no binding”.

SPAYREAFGNALLQRPEALKRDGQS (peptide, UniProt Q9P0R6 115-139) [GSKIPtide (115–139) L130P]: the binding result was “no binding”.

Regarding SPAYREAFGNALLQRAEALKRDGQS (peptide, UniProt Q9P0R6 115-139) [GSKIPtide (115–139) L130A], the binding entry is “no binding”.

As to SPAFREAFGNALLQRLEALKRDGQS (peptide, UniProt Q9P0R6 115-139) [GSKIPtide (115–139) Y118F], the binding entry is “no binding”.

Regarding SPAYREAFGNALLQRVEALKRDGQS (peptide, UniProt Q9P0R6 115-139) [GSKIPtide (115–139) L130V], the binding result is “no binding”.

As to SPAYREAAGNALLQRLEALKRDGQS (peptide, UniProt Q9P0R6 115-139) [GSKIPtide (115–139) F122A], the binding result is recorded as “no binding”.

Turning to SPAYREAPGNALLQRLEALKRDGQS (peptide, UniProt Q9P0R6 115-139) [GSKIPtide (115–139) F122P], the binding result is reported as “no binding”.

As for SPAYREAYGNALLQRLEALKRDGQS (peptide, UniProt Q9P0R6 115-139) [GSKIPtide (115–139) F122Y], the binding entry is listed as “no binding”.
